The values that follow come from article PMC9774280.

Protein sequences, listed by entry. Tags and fused reporters are not part of them. Lines headed by an entry give the natural chain unless they say otherwise; changes in a name come on top. Residues count along the entry.
UniProt O00206: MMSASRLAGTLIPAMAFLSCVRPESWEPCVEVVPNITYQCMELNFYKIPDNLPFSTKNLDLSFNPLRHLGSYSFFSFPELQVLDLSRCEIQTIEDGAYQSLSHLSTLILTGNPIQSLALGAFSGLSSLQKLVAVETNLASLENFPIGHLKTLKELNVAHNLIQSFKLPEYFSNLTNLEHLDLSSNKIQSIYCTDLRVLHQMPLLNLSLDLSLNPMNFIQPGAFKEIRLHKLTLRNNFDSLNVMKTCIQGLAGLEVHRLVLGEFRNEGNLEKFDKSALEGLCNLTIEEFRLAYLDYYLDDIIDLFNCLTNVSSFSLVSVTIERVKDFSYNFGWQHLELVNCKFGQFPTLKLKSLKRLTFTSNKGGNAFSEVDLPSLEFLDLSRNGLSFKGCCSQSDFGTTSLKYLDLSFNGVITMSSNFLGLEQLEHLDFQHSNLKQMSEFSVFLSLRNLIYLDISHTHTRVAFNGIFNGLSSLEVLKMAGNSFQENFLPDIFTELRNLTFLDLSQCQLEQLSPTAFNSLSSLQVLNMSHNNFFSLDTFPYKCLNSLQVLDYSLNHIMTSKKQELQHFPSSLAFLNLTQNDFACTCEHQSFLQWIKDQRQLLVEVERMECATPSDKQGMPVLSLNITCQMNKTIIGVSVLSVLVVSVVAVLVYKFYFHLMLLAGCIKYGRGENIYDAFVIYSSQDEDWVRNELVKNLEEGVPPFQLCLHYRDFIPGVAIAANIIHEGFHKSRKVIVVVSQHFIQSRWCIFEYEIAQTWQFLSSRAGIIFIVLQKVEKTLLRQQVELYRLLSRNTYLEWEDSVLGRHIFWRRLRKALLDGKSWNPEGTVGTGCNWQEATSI
UniProt Q9QUK6, residues 26-835: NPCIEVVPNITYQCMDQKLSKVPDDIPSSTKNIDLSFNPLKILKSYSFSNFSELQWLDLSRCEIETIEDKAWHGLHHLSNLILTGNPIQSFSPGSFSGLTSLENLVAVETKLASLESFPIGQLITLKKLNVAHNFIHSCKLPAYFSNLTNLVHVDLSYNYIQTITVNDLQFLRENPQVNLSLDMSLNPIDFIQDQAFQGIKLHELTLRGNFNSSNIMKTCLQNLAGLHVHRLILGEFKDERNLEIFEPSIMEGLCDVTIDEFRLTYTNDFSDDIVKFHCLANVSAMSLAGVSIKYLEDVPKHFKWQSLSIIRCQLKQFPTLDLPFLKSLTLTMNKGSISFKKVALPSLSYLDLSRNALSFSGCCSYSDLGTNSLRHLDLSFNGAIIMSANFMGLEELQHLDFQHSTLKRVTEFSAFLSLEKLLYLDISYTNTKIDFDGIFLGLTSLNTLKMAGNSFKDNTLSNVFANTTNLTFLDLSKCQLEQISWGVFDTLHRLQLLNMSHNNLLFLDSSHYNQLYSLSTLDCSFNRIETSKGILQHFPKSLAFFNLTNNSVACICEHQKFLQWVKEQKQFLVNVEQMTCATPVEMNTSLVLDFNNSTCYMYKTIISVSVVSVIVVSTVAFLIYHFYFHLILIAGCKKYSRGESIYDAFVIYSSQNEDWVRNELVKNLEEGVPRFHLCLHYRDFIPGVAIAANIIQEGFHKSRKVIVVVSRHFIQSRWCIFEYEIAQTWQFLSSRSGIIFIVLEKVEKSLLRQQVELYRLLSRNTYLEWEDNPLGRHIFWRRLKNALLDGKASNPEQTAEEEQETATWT
UniProt Q8R4B8: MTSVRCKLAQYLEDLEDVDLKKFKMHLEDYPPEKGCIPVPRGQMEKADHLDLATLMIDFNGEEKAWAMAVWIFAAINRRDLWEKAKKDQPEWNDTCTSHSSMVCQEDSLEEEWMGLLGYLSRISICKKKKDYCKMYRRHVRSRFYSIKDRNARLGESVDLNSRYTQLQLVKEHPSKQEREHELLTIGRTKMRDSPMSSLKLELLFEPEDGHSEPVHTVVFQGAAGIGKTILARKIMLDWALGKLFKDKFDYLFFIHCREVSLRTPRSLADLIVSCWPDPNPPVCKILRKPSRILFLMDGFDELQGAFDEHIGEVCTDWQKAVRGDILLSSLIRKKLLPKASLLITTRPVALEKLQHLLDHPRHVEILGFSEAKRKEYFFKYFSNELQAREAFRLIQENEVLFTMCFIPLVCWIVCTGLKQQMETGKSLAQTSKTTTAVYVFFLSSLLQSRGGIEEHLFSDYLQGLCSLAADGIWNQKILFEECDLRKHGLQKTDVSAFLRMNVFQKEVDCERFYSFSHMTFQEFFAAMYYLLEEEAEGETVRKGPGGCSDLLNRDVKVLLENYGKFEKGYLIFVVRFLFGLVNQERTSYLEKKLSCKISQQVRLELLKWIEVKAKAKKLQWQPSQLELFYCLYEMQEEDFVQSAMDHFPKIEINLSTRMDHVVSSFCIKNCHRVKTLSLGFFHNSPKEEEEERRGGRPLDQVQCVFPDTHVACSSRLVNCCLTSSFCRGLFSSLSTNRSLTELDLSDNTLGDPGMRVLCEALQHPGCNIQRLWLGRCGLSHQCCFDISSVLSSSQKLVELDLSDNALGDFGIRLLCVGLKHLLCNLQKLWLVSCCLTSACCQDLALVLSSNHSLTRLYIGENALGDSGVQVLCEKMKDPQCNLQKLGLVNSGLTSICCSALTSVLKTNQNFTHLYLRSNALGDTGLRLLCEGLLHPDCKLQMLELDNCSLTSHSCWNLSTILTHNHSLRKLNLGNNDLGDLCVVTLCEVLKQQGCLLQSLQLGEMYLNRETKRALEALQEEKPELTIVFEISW

No constants are given. Whether binding was seen depends on the method and setting. Binding seen in cells or lysates may run through a third protein. Some results given as binding are weak or reduced against the parent protein; the word gives no strength. For part of these data: Where a sequence is shown, tags or fusion partners need not be part of it.

Assay [1] addresses Myc-NAMPT (UniProt P43490). Put plainly: co-IP; 293T cells transfected with Flag-TLR4 or its mutants and Myc-NAMPT; IP with anti-Myc, IB with anti-Flag.
Assay [2] deals with T1, GST-NAMPT (10-116), N-terminus of NAMPT (UniProt P43490).
T1 sequence: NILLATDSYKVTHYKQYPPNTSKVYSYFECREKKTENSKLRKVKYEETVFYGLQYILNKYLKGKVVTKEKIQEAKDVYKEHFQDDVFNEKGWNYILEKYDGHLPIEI
As to the kind of experiment: pull-down; 293T cells co-transfected with the GST fusion and the tagged partner; NP-40 lysate, glutathione-Sepharose, 4 °C, 4 h; IB with anti-Flag, anti-V5 or anti-Myc.

The target of assay [3] is T2, GST-CYBB (UniProt P04839).
T2 sequence: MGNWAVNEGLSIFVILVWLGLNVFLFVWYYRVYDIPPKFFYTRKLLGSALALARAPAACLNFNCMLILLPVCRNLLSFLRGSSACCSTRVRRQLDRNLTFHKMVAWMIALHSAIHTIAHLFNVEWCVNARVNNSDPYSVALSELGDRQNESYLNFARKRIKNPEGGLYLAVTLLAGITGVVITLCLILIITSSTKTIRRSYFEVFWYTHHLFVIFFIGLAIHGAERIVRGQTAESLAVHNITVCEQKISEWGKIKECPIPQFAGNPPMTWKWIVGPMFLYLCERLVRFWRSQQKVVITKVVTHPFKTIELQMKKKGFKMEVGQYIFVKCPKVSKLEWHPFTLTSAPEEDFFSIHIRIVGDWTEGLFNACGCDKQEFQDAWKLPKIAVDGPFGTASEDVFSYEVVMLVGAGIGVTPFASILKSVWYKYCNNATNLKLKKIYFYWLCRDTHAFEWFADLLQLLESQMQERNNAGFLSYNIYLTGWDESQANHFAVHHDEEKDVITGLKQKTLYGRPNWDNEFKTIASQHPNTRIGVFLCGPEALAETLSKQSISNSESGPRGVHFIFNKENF
The assay is described as above.

Assay [4] concerns the target Nicotinamide phosphoribosyl transferase (NAMPT), endogenous, extracellular (e) NAMPT of macrophages (mouse (endogenous in BMDMs and colon)) (UniProt Q99KQ4). As to the kind of experiment: co-IP; BMDMs primed with LPS (100 ng/mL) and stimulated with ATP (1 mM); NP-40 lysate; IP with anti-NAMPT, IB with anti-TLR4, anti-CYBB, anti-CYBA, anti-ASC or anti-NLRP3.
Assay [5] addresses recombinant NAMPT protein (UniProt P43490). As to the kind of experiment: co-IP; BMDMs incubated with rNAMPT (1 μg/mL) for 2 h; IP with anti-His, IB with anti-TLR4, anti-CYBB, anti-CYBA, anti-ASC or anti-NLRP3; only the target purified.
Assay [6] addresses T3, V5-CYBB (UniProt P04839).
T3 sequence: T2 sequence
As to the kind of experiment: co-IP; competition: TAT-NAMPT peptides (5 µM; 1, 5, 10 µM, 6 h) added to 293T cells expressing Myc-NAMPT and Flag-TLR4 or V5-CYBB; loss of the co-precipitate read out; peptide against the tagged receptor; only the binder purified.

Assay [7] addresses Flag-TLR4 (UniProt O00206). The description is as above.
The target of assay [8] is T4, CYBB, endogenous (mouse (endogenous in BMDMs and colon)) (UniProt Q61093).
T4 sequence: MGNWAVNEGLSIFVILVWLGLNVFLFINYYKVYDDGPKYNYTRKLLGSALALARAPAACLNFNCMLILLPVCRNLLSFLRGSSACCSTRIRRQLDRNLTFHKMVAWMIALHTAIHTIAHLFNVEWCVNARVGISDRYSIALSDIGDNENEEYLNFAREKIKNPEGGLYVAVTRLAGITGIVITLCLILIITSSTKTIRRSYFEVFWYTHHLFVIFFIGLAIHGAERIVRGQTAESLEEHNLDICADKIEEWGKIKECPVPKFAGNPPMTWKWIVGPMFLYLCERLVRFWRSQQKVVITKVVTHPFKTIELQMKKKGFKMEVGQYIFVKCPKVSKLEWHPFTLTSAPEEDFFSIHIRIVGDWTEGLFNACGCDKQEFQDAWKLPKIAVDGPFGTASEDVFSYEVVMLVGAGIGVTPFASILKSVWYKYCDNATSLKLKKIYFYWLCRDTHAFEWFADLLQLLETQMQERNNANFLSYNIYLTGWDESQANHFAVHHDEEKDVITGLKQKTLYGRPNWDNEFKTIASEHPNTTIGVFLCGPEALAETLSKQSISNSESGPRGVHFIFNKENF
As to the kind of experiment: co-IP; competition: TAT-NAMPT peptides on BMDMs incubated with rNAMPT; loss of the anti-His co-precipitate of TLR4 or CYBB read out; peptide against the endogenous receptor; only the binder purified.

In assay [9] the target is TLR4, endogenous (mouse (endogenous in BMDMs and colon)) (UniProt Q9QUK6). Described as above.
Assay [10] has as its target Nicotinamide phosphoribosyl transferase (NAMPT), endogenous, extracellular (e) NAMPT of macrophages (mouse (endogenous in BMDMs and colon)) (UniProt Q99KQ4). As to the kind of experiment: condition: only in Lenti-shITG-transduced (ITGA6/ITGB1 knock-down) mice; co-IP; colon of DSS-treated Lenti-shITG-transduced (ITGA6 and ITGB1 knock-down) mice; IP with anti-His or anti-NAMPT, IB with anti-TLR4, anti-CYBB or anti-CYBA.

The target is the same in assay [11]. Put plainly: co-IP; colon of DSS-treated Lenti-shNS-transduced mice (rVehicle, rCT or rCT-NAMPT given); IP with anti-His or anti-NAMPT, IB with anti-TLR4, anti-CYBB or anti-CYBA.

In the case of “Flag-TLR4 (25-696), extracellular leucine-rich region (LRR domain) (from UniProt O00206 25-696) (domain or fragment)”, in assay [1], the binding result was “binds”.
For the substance “Flag-TLR4 (from UniProt O00206 24-811) (receptor)”, the binding entry in assay [2] is “binds”.
Regarding Myc-NAMPT (from UniProt P43490 1-491), the binding result in assay [3] is recorded as “binds”.
Consider “NLRP3, endogenous (from UniProt Q8R4B8 1-1033)”, for which the binding entry in assay [4] was “no binding”; in assay [5], “no binding (tested: 1 μg/mL rNAMPT)”.
In the case of “TAT–NAMPT (aa 40–69) peptide (from UniProt P43490 40-69)”, the binding result in assay [6] and in assay [7] was “binds” each time.
Turning to “TAT–NAMPT (aa 52–56) peptide (from UniProt P43490 52-56)”, the binding entry in assay [8] and in assay [6] was “binds” throughout.
As for “TAT–NAMPT (aa 57–65) peptide (from UniProt P43490 57-65)”, the binding entry in assay [9] and in assay [7] was “binds” throughout.
“TLR4, endogenous (from UniProt Q9QUK6 26-835) (receptor)”: the binding result in assay [10] was “no binding”; in assay [4], “binds”; in [11] it was “binds”; in [5], “binds”.
